Measured values: patent publication US5162315A, “Penetration enhancers” (priority 1989, dated 1992)

Procedure: The compounds of the present invention were tested in vitro as penetration enhancers according to the procedure outlined below. The penetration enhancers were formulated with pharmacologically active agents in creams and permeation of the active agent through human stratum corneum in vitro was compared to control formulation without enhancer. Higher permeation of the active agent in presence of an enhancer exemplified the invention.
Human stratum corneum was isolated from full thickness human skin as described by Bronaugh et al., J. Pharm. Sci. 75, 1094 (1986). The skin was placed between the donor and the receptor compartments of diffusion cells in such a way that the dermal side of the skin faced the receptor compartment which was filled with normal saline (pH 7.2-7.4). The stratum corneum was equilibrated at 37° C. overnight prior to the application of a topical formulation or transdermal patch. All formulations were studied in triplicate.
About 500 mg of the following three Isosorbide Dinitrate (ISDN) formulations (40% ISDN & 60% Lactose) were applied to cover the stratum corneum surface within the donor compartment. The entire contents of the receptor compartment were removed at specific time intervals over 48 hours and replenished with fresh saline. The aliquots were analyzed by HPLC and the average cumulative amount of ISDN in micrograms permeating over the study period was calculated.

Row | Average Cumulative Amount of ISDN in Micrograms permeating over 48 hours | ISDN permeation enhancement compared to cyclic isomer | Structure (SMILES) | ISDN permeation enhancing properties compared to control
1 | 1160.9 ± 73 Micrograms | – | CCCCCCCCCCCC(=O)N1CCN(CCO)CC1 [Example 5, 1-(1-oxododecyl)-4-(2-hydroxyethyl)piperazine] | superior permeation enhancing properties as compared to control
2 | 872.3 ± 85 Micrograms | – | CCCCCCCCCCCC1=NCCN1CCO [1-(2-hydroxyethyl)-2-undecyl-2-imidazoline, reference compound] | –
3 | 821.3 ± 56 Micrograms | as effective as its cyclic isomer | CCCCCCCCCCCC(=O)NCCNCCO [Example 1, N-[2-(2-hydroxyethyl)aminoethyl]dodecanamide] | superior permeation enhancing properties as compared to control
